This note sets out measurements from the antibiotic and cytotoxicity screens of Wong et al. (2023).

The test system of one assay is HSkMC. In words: cytotoxicity call (relative viability < 0.9). To be noted: 10 µM.
A further assay concerns HepG2. As to the kind of experiment: cytotoxicity call (relative viability < 0.9). To be noted: 10 µM.
Another assay has as its system S. aureus RN4220. In words: growth inhibition call (relative growth <= 0.2). To be noted: 50 µM.

Structures are written as SMILES. This is one part of the list.

For the compound `C[C@@H]1CN([C@H](C)CO)C(=O)c2cc(NC(=O)c3ccncc3)ccc2O[C@@H](C)CCCCO[C@H]1CN(C)C(=O)Nc1ccccc1`, the cytotoxicity call in the assay on HSkMC and with HepG2 was “inactive” each time. For the same compound, the growth inhibition call in the assay with S. aureus RN4220 is “inactive”.
Consider `COCC(=O)N1C[C@H](C)[C@H](OC)CN(C)C(=O)c2ccc(NC(=O)c3ccc(OC)cc3)cc2OC[C@@H]1C`, for which the cytotoxicity call in the assay on HSkMC and with HepG2 was “inactive” each time. In addition, the growth inhibition call with S. aureus RN4220 is “inactive”.
For `COc1cccc(NC(=O)N[C@H]2CC[C@@H](CC(=O)N3CCOCC3)O[C@H]2CO)c1`, the cytotoxicity call in the assay with HSkMC and with HepG2 was “inactive” throughout. Besides, the growth inhibition call in the assay on S. aureus RN4220 was “inactive”.
For the compound `Cc1noc(C)c1S(=O)(=O)Nc1ccc2c(c1)CC(=O)N([C@H](C)CO)C[C@H](C)[C@@H](CN(C)Cc1ccc3c(c1)OCO3)O2`, the cytotoxicity call with HSkMC and in the assay with HepG2 was “inactive” in each case. For the same compound, the growth inhibition call in the assay on S. aureus RN4220 is “inactive”.
With `CCN(CC)C(=O)C1(c2ccccc2)CC1CN.Cl` (centres undefined), the cytotoxicity call with HSkMC and with HepG2 was “inactive” each time. Further, the growth inhibition call in the assay on S. aureus RN4220 is “inactive”.
Consider `C[C@@H]1CN([C@@H](C)CO)C(=O)Cc2cc(NS(=O)(=O)c3cn(C)cn3)ccc2O[C@H]1CN(C)S(=O)(=O)c1cn(C)cn1`, for which the cytotoxicity call with HSkMC and in the assay with HepG2 was “inactive” each time. Further, the growth inhibition call with S. aureus RN4220 was “inactive”.
`Cc1noc(C)c1NC(=O)N(C)C[C@H]1OCCCC[C@H](C)Oc2ccc(NS(=O)(=O)c3ccccc3)cc2C(=O)N([C@H](C)CO)C[C@@H]1C`: the cytotoxicity call in the assay on HSkMC and with HepG2 was “inactive” each time. Besides, the growth inhibition call with S. aureus RN4220 is “inactive”.
As to `COc1ccc(NC(=O)Nc2ccc3c(c2)C(=O)N([C@H](C)CO)C[C@@H](C)[C@H](CN(C)Cc2ccc(C(F)(F)F)cc2)O3)cc1`, in the assay on HSkMC, the cytotoxicity call is “inactive”. For the same compound, the cytotoxicity call in the assay on HepG2 was “active”. Also, the growth inhibition call in the assay with S. aureus RN4220 was “inactive”.
As to `O=C(O)c1cc(O[C@@H]2O[C@H](CO)[C@@H](O)[C@H](O)[C@H]2O)c2ccccc2c1O`, the cytotoxicity call in the assay with HSkMC and in the assay on HepG2 was “inactive” each time. The growth inhibition call in the assay on S. aureus RN4220 is “inactive”.
Take `C[C@H](CO)N1C[C@H](C)[C@H](CN(C)CC2CC2)OCCCC[C@H](C)Oc2ccc(NC(=O)Nc3ccccc3)cc2C1=O`: the cytotoxicity call with HSkMC and in the assay on HepG2 was “inactive” in each case. The growth inhibition call with S. aureus RN4220 was “inactive”.
Consider `C[C@H](NC(=O)N(C)C[C@@H]1OCc2ccccc2-c2ccccc2C(=O)N([C@@H](C)CO)C[C@@H]1C)c1ccccc1`, for which the cytotoxicity call in the assay on HSkMC and with HepG2 was “inactive” each time. In the assay with S. aureus RN4220, the growth inhibition call was “inactive”.
`O=C(C[C@@H]1CC[C@@H]2[C@H](COC[C@@H](O)CN2S(=O)(=O)c2ccccc2)O1)NCc1ccc(-c2ccccc2)cc1`: the cytotoxicity call in the assay on HSkMC and in the assay with HepG2 was “inactive” throughout. In addition, the growth inhibition call in the assay with S. aureus RN4220 was “inactive”.
Regarding `C[C@H]1CN([C@@H](C)CO)C(=O)c2cc(NC(=O)Cn3cnnn3)ccc2O[C@H]1CN(C)C(=O)Nc1cccc2ccccc12`, the cytotoxicity call in the assay on HSkMC and in the assay on HepG2 was “inactive” throughout. Further, the growth inhibition call in the assay on S. aureus RN4220 is “inactive”.
Regarding `C[C@@H]1CCCCO[C@@H](CN(C)S(=O)(=O)c2ccc(Cl)cc2)[C@H](C)CN([C@@H](C)CO)C(=O)c2cc(NC(=O)Nc3ccc(F)cc3)ccc2O1`, the cytotoxicity call with HSkMC and with HepG2 was “inactive” in each case. Besides, the growth inhibition call in the assay on S. aureus RN4220 was “inactive”.
Take `C[C@@H]1CCCCO[C@H](CN(C)Cc2ccc(C(F)(F)F)cc2)[C@H](C)CN([C@H](C)CO)C(=O)c2cc(NC(=O)C3CCCCC3)ccc2O1`: the cytotoxicity call in the assay on HSkMC and with HepG2 was “inactive” each time. For the same compound, the growth inhibition call in the assay with S. aureus RN4220 is “inactive”.
As to `C[C@H]1CN([C@@H](C)CO)C(=O)Cc2cc(NC(=O)Cn3cnnn3)ccc2O[C@@H]1CN(C)S(=O)(=O)c1ccc(Cl)cc1`, the cytotoxicity call with HSkMC and with HepG2 was “inactive” each time. In the assay with S. aureus RN4220, the growth inhibition call was “inactive”.
Regarding `CO[C@@H]1CN(C)C(=O)c2cc(NC(=O)Nc3ccccc3F)ccc2OC[C@@H](C)N(Cc2ccccc2C(=O)O)C[C@H]1C`, the cytotoxicity call with HSkMC and in the assay on HepG2 was “inactive” in each case. The growth inhibition call in the assay with S. aureus RN4220 is “inactive”.
In the case of `C[C@@H]1CN([C@H](C)CO)C(=O)Cc2cc(NS(=O)(=O)c3ccc(Cl)cc3)ccc2O[C@@H]1CN(C)Cc1ccc(Oc2ccccc2)cc1`, the cytotoxicity call with HSkMC and in the assay on HepG2 was “active” each time. Moreover, the growth inhibition call with S. aureus RN4220 was “inactive”.
For the compound `COc1cccc(S(=O)(=O)Nc2ccc3c(c2)C(=O)N(C)C[C@@H](OC)[C@@H](C)CN(C(=O)Cc2cccnc2)[C@@H](C)CO3)c1`, the cytotoxicity call with HSkMC and in the assay on HepG2 was “inactive” each time. In the assay on S. aureus RN4220, the growth inhibition call is “inactive”.
For the compound `COc1cc(C(=O)OCCN2CCN(CCOC(=O)c3cc(OC)c(OC)c(OC)c3)CC2)cc(OC)c1OC`, the cytotoxicity call in the assay on HSkMC and in the assay on HepG2 was “inactive” in each case. Also, the growth inhibition call in the assay with S. aureus RN4220 is “inactive”.
For `CC12C=CC(=O)C=C1CCC1C2C(O)CC2(C)C1CCC2(O)C(=O)CO` (centres undefined), the cytotoxicity call in the assay with HSkMC and in the assay with HepG2 was “inactive” throughout. Besides, in the assay with S. aureus RN4220, the growth inhibition call was “inactive”.
In the case of `CCCNC(=O)[C@@]1(Sc2ccc(C)cc2)CC(=O)N(Cc2ccccc2C(F)(F)F)[C@@H]1c1ccc(CO)cc1I`, the cytotoxicity call in the assay on HSkMC and with HepG2 was “inactive” throughout. Also, the growth inhibition call with S. aureus RN4220 is “inactive”.
Take `C[C@@H]1CN([C@H](C)CO)C(=O)c2cc(NC(=O)NC3CCCCC3)ccc2O[C@@H](C)CCCCO[C@@H]1CN(C)S(=O)(=O)c1ccccc1`: the cytotoxicity call with HSkMC and in the assay on HepG2 was “inactive” throughout. The growth inhibition call in the assay on S. aureus RN4220 was “inactive”.
For `C[C@H](CO)N1C[C@H](C)[C@@H](CN(C)S(=O)(=O)c2cn(C)cn2)Oc2ccc(NC(=O)C3CC3)cc2C1=O`, the cytotoxicity call with HSkMC and with HepG2 was “inactive” throughout. Besides, in the assay on S. aureus RN4220, the growth inhibition call is “inactive”.
On to `O=C(N[C@H](c1ccc(F)cc1)c1ccc2ccccc2n1)C1CCN(CCOc2ccc(Cl)cc2)CC1`, for which the cytotoxicity call with HSkMC and in the assay on HepG2 was “inactive” in each case. Also, the growth inhibition call with S. aureus RN4220 was “active”.
As to `C[C@@H]1CCCCO[C@H](CN(C)Cc2ccc(C(=O)Nc3ccccc3N)cc2)[C@H](C)CN([C@H](C)CO)C(=O)c2cc(N(C)C)ccc2O1`, the cytotoxicity call in the assay on HSkMC and in the assay on HepG2 was “inactive” in each case. In addition, the growth inhibition call in the assay on S. aureus RN4220 is “inactive”.
As for `COc1ccc2c3c(n(c2c1)C)[C@H](CO)N(C[C@]13CCN(CC1)C(=O)C1CC1)C(=O)CN1CCOCC1`, the cytotoxicity call in the assay on HSkMC (human skeletal muscle cells) and in the assay on HepG2 was “inactive” each time. Also, in the assay with S. aureus RN4220, the growth inhibition call was “inactive”.
Turning to `O=C(Nc1ccc(-c2nc3ccc(NC(=O)c4ccccc4[N+](=O)[O-])cc3[nH]2)cc1)c1ccccc1[N+](=O)[O-]`, the cytotoxicity call with HSkMC is “inactive”. Further, the cytotoxicity call in the assay with HepG2 was “active”. For the same compound, in the assay on S. aureus RN4220, the growth inhibition call is “inactive”.
